{"source": "the antibiotic and cytotoxicity screens of Wong et al. (2023)", "key": {"[1]": {"test_system": "HSkMC (human skeletal muscle cells)", "test": "cytotoxicity call (relative viability < 0.9)", "conditions": "10 µM"}, "[2]": {"test_system": "HepG2", "test": "cytotoxicity call (relative viability < 0.9)", "conditions": "10 µM"}, "[3]": {"test_system": "S. aureus RN4220", "test": "growth inhibition call (relative growth <= 0.2)", "conditions": "50 µM"}}, "note": "The other results are listed elsewhere or left out."}
{"smiles": "CC(=O)[C@]1(O)Cc2c(O)c3c(c(O)c2[C@@H](O[C@@H]2C[C@@H](N)[C@H](O)[C@@H](C)O2)C1)C(=O)c1c(O)cccc1C3=O", "values": [{"measurement": "cytotoxicity call", "setting": "[1]", "result": "active"}, {"measurement": "cytotoxicity call", "setting": "[2]", "result": "active"}, {"measurement": "growth inhibition call", "setting": "[3]", "result": "active"}]}
{"smiles": "Cc1ccc(S(=O)(=O)Nc2ccc3c(c2)C(=O)N([C@H](C)CO)C[C@H](C)[C@H](CN(C)S(=O)(=O)c2cccs2)O3)cc1", "values": [{"measurement": "cytotoxicity call", "setting": "[1]", "result": "inactive"}, {"measurement": "cytotoxicity call", "setting": "[2]", "result": "inactive"}, {"measurement": "growth inhibition call", "setting": "[3]", "result": "inactive"}]}
{"smiles": "CN1CCN(C(=O)C[C@H]2CC[C@H]3[C@@H](COc4ccc(NC(=O)C5CCCCC5)cc4C(=O)N3C)O2)CC1", "values": [{"measurement": "cytotoxicity call", "setting": "[1]", "result": "inactive"}, {"measurement": "cytotoxicity call", "setting": "[2]", "result": "inactive"}, {"measurement": "growth inhibition call", "setting": "[3]", "result": "inactive"}]}
{"smiles": "C[C@@H](NS(=O)(=O)C1CN(C(=O)OCc2ccccc2)C1)C(N)=O", "values": [{"measurement": "cytotoxicity call", "setting": "[1]", "result": "inactive"}, {"measurement": "cytotoxicity call", "setting": "[2]", "result": "inactive"}, {"measurement": "growth inhibition call", "setting": "[3]", "result": "inactive"}]}
{"smiles": "CNC(=O)C(=O)Nc1cc(F)ccc1F", "values": [{"measurement": "cytotoxicity call", "setting": "[1]", "result": "inactive"}, {"measurement": "cytotoxicity call", "setting": "[2]", "result": "inactive"}, {"measurement": "growth inhibition call", "setting": "[3]", "result": "inactive"}]}
{"smiles": "Cc1nc2sccn2c(=O)c1CCN1CCC(=C(c2ccc(F)cc2)c2ccc(F)cc2)CC1", "values": [{"measurement": "cytotoxicity call", "setting": "[1]", "result": "inactive"}, {"measurement": "cytotoxicity call", "setting": "[2]", "result": "inactive"}, {"measurement": "growth inhibition call", "setting": "[3]", "result": "inactive"}]}
{"smiles": "COc1cccc(S(=O)(=O)N(C)C[C@H]2Oc3ncc(C#CCN(C)C)cc3C(=O)N([C@@H](C)CO)C[C@H]2C)c1", "values": [{"measurement": "cytotoxicity call", "setting": "[1]", "result": "inactive"}, {"measurement": "cytotoxicity call", "setting": "[2]", "result": "inactive"}, {"measurement": "growth inhibition call", "setting": "[3]", "result": "inactive"}]}
{"smiles": "COC(=O)C1=C(C)NC(C)=C(C(=O)OCC(C)C)C1c1ccccc1[N+](=O)[O-]", "note": "(stereo unspecified)", "values": [{"measurement": "cytotoxicity call", "setting": "[1]", "result": "inactive"}, {"measurement": "cytotoxicity call", "setting": "[2]", "result": "inactive"}, {"measurement": "growth inhibition call", "setting": "[3]", "result": "inactive"}]}
{"smiles": "NC(=O)[C@H]1CSCCC(=O)N1", "values": [{"measurement": "cytotoxicity call", "setting": "[1]", "result": "inactive"}, {"measurement": "cytotoxicity call", "setting": "[2]", "result": "inactive"}, {"measurement": "growth inhibition call", "setting": "[3]", "result": "inactive"}]}
{"smiles": "COc1cccc(CNC(=O)C[C@@H]2C=C[C@@H](NC(=O)C3CCOCC3)[C@H](CO)O2)c1", "values": [{"measurement": "cytotoxicity call", "setting": "[1]", "result": "inactive"}, {"measurement": "cytotoxicity call", "setting": "[2]", "result": "inactive"}, {"measurement": "growth inhibition call", "setting": "[3]", "result": "inactive"}]}
{"smiles": "C[C@H](CO)N1C[C@H](C)[C@@H](CN(C)Cc2ccncc2)Oc2ccc(NC(=O)Cn3cnnn3)cc2CC1=O", "values": [{"measurement": "cytotoxicity call", "setting": "[1]", "result": "inactive"}, {"measurement": "cytotoxicity call", "setting": "[2]", "result": "inactive"}, {"measurement": "growth inhibition call", "setting": "[3]", "result": "inactive"}]}
{"smiles": "COc1cccc(OCc2ccc(Cn3nc(NC(=O)Nc4c(OC)cccc4OC)c4ccccc43)cc2)c1", "values": [{"measurement": "cytotoxicity call", "setting": "[1]", "result": "inactive"}, {"measurement": "cytotoxicity call", "setting": "[2]", "result": "inactive"}, {"measurement": "growth inhibition call", "setting": "[3]", "result": "inactive"}]}
{"smiles": "Cn1cnc(S(=O)(=O)N[C@@H]2CC[C@@H](CC(=O)NCC3CC3)O[C@H]2CO)c1", "values": [{"measurement": "cytotoxicity call", "setting": "[1]", "result": "inactive"}, {"measurement": "cytotoxicity call", "setting": "[2]", "result": "inactive"}, {"measurement": "growth inhibition call", "setting": "[3]", "result": "inactive"}]}
{"smiles": "CC(C)NC(=O)Nc1ccc2c(c1)CC(=O)N([C@H](C)CO)C[C@H](C)[C@@H](CN(C)Cc1ccc(-c3ccccc3)cc1)O2", "values": [{"measurement": "cytotoxicity call", "setting": "[1]", "result": "inactive"}, {"measurement": "cytotoxicity call", "setting": "[2]", "result": "inactive"}, {"measurement": "growth inhibition call", "setting": "[3]", "result": "inactive"}]}
{"smiles": "COc1ccc(S(=O)(=O)N(C)C[C@@H]2Oc3ccc(N(C)C)cc3C(=O)N([C@@H](C)CO)C[C@H]2C)cc1", "values": [{"measurement": "cytotoxicity call", "setting": "[1]", "result": "inactive"}, {"measurement": "cytotoxicity call", "setting": "[2]", "result": "active"}, {"measurement": "growth inhibition call", "setting": "[3]", "result": "inactive"}]}
{"smiles": "COc1ccc([C@H]([C@H](Cc2ccccc2)OC(C)=O)N(C[C@@H](/C=C/c2ccccc2)CC(=O)N(C)C)[C@@H](Cc2ccccc2)C(OC)OC)cc1", "values": [{"measurement": "cytotoxicity call", "setting": "[1]", "result": "inactive"}, {"measurement": "cytotoxicity call", "setting": "[2]", "result": "active"}, {"measurement": "growth inhibition call", "setting": "[3]", "result": "inactive"}]}
{"smiles": "CO[C@@H]1CN(C)C(=O)c2cc(NC(=O)C3CCOCC3)ccc2OC[C@@H](C)N(CC2CCOCC2)C[C@H]1C", "values": [{"measurement": "cytotoxicity call", "setting": "[1]", "result": "inactive"}, {"measurement": "cytotoxicity call", "setting": "[2]", "result": "inactive"}, {"measurement": "growth inhibition call", "setting": "[3]", "result": "inactive"}]}
{"smiles": "Cc1ccc(S(=O)(=O)N(C)C[C@@H]2Oc3c(NS(=O)(=O)c4cccs4)cccc3C(=O)N([C@@H](C)CO)C[C@@H]2C)cc1", "values": [{"measurement": "cytotoxicity call", "setting": "[1]", "result": "inactive"}, {"measurement": "cytotoxicity call", "setting": "[2]", "result": "inactive"}, {"measurement": "growth inhibition call", "setting": "[3]", "result": "inactive"}]}
{"smiles": "COc1ccc(S(=O)(=O)Nc2ccc3c(c2)C(=O)N([C@H](C)CO)C[C@H](C)[C@@H](CN(C)Cc2ccc(C(=O)O)cc2)OCCCC[C@@H](C)O3)cc1", "values": [{"measurement": "cytotoxicity call", "setting": "[1]", "result": "inactive"}, {"measurement": "cytotoxicity call", "setting": "[2]", "result": "inactive"}, {"measurement": "growth inhibition call", "setting": "[3]", "result": "inactive"}]}
{"smiles": "COc1ccc(S(=O)(=O)Nc2cccc3c2O[C@@H](CN(C)Cc2ccc(Cl)c(Cl)c2)[C@@H](C)CN([C@@H](C)CO)C3=O)cc1", "values": [{"measurement": "cytotoxicity call", "setting": "[1]", "result": "inactive"}, {"measurement": "cytotoxicity call", "setting": "[2]", "result": "inactive"}, {"measurement": "growth inhibition call", "setting": "[3]", "result": "inactive"}]}
{"smiles": "COc1ccc(NC(=O)N(C)C[C@H]2Oc3ccc(NC(=O)CCN4CCOCC4)cc3C(=O)N([C@H](C)CO)C[C@@H]2C)cc1", "values": [{"measurement": "cytotoxicity call", "setting": "[1]", "result": "inactive"}, {"measurement": "cytotoxicity call", "setting": "[2]", "result": "inactive"}, {"measurement": "growth inhibition call", "setting": "[3]", "result": "inactive"}]}
{"smiles": "CC(C)COc1c[nH]c(CO)cc1=O", "values": [{"measurement": "cytotoxicity call", "setting": "[1]", "result": "inactive"}, {"measurement": "cytotoxicity call", "setting": "[2]", "result": "inactive"}, {"measurement": "growth inhibition call", "setting": "[3]", "result": "inactive"}]}
{"smiles": "Nc1ncn([C@H]2C[C@H](OP(=O)(O)OC[C@H]3O[C@@H](n4cnc5c(=O)nc(N)[nH]c54)C[C@@H]3O)[C@@H](CO)O2)c(=O)n1", "values": [{"measurement": "cytotoxicity call", "setting": "[1]", "result": "inactive"}, {"measurement": "cytotoxicity call", "setting": "[2]", "result": "inactive"}, {"measurement": "growth inhibition call", "setting": "[3]", "result": "inactive"}]}
{"smiles": "C[C@H]1CN([C@@H](C)CO)C(=O)c2cccc(NS(C)(=O)=O)c2O[C@H]1CN(C)S(=O)(=O)c1ccc(F)cc1", "values": [{"measurement": "cytotoxicity call", "setting": "[1]", "result": "inactive"}, {"measurement": "cytotoxicity call", "setting": "[2]", "result": "inactive"}, {"measurement": "growth inhibition call", "setting": "[3]", "result": "inactive"}]}
{"smiles": "C[C@H]1CN([C@@H](C)CO)C(=O)CCCn2cc(nn2)CO[C@H]1CN(C)Cc1cccc2c1OCCCO2", "values": [{"measurement": "cytotoxicity call", "setting": "[1]", "result": "inactive"}, {"measurement": "cytotoxicity call", "setting": "[2]", "result": "inactive"}, {"measurement": "growth inhibition call", "setting": "[3]", "result": "inactive"}]}
{"smiles": "Cc1noc(C)c1S(=O)(=O)Nc1ccc2c(c1)C(=O)N([C@H](C)CO)C[C@@H](C)[C@@H](CN(C)C(=O)Nc1ccc3c(c1)OCO3)O2", "values": [{"measurement": "cytotoxicity call", "setting": "[1]", "result": "inactive"}, {"measurement": "cytotoxicity call", "setting": "[2]", "result": "inactive"}, {"measurement": "growth inhibition call", "setting": "[3]", "result": "inactive"}]}
{"smiles": "COc1ccccc1C#Cc1cnc2c(c1)C(=O)N([C@@H](C)CO)C[C@H](C)[C@H](CN(C)C(=O)CN(C)C)O2", "values": [{"measurement": "cytotoxicity call", "setting": "[1]", "result": "inactive"}, {"measurement": "cytotoxicity call", "setting": "[2]", "result": "inactive"}, {"measurement": "growth inhibition call", "setting": "[3]", "result": "inactive"}]}
